Screen size: about 190,000 compounds; about 360 (0.19%) were called active. Inconclusive means that the source gave no clear call. Such entries were picked first, then a sample of the others.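 Rule for the calls: active = GTP binding activity at least 20 points away from 100%, either lowered or raised; inconclusive = signal likely due to the compound's own green fluorescence; inactive = the rest.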
What follows are compounds tested against Ras-related protein Rab-2A (Canis lupus familiaris) (UniProt P61105) (assay: Rab2 wt fluorescent GTP binding changes, either direction – biochemical, dog, bead-based flow cytometry, multiplex, primary screen (AID 760;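 note: 0% = beads with excess unlabeled GTP and 100% = no-compound control corrected for plate trend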)). Details: GST-Rab2 wt beads, Bodipy-GTP binding, at 10 µM.

Row | Compound | GTP binding activity
1 | C=CCn1c(SCc2ccc(C(=O)Nc3ccccc3)cc2)nnc1-c1ccccc1 | inconclusive: 107%
2 | COc1ccc(CCNC(=O)c2c(O)c3c([nH]c2=O)CCCC3)cc1 | inconclusive: 91%
3 | CN(C)Cc1c(O)ccc2[nH]cnc12 | inconclusive: 105%
4 | CCCC1CC(C)(C(=O)CSc2n[nH]c(-c3ccccc3)n2)OC1=O (configuration not stated) | inactive: 103%
5 | Cn1c(=O)cc(N2CCOCC2)[nH]c1=O | inconclusive: 335%
6 | O=C(O)c1ccc2c(=O)[nH]c(CN3CCOCC3)nc2c1 | inconclusive: 106%
7 | CCOC(=O)NN1C(=O)c2ccccc2NC1c1ccccc1 (configuration not stated) | inconclusive: 102%
8 | Cc1ccc(-c2nnc(-c3ccc(NC(=O)c4cccs4)cc3)o2)cc1 | inconclusive: 105%
9 | O=C(CC1C(=O)NCCN1Cc1ccc(-c2ccccc2)cc1)NCCCn1cccn1 (configuration not stated) | inconclusive: 91%
10 | COc1ccccc1NC(=S)N1CCN(C(=O)C2CCCO2)CC1 (configuration not stated) | inactive: 99%
11 | CC(NCc1ccc(N(C)C)cc1)C1CC2CCC1C2 (configuration not stated) | inactive: 103%
12 | CC(C)NS(=O)(=O)c1ccc(OCC(=O)N2CCCC2)c(Cl)c1 | inconclusive: 99%
13 | COc1cc(C(=O)Nc2nnc(CC(C)C)s2)c([N+](=O)[O-])cc1OC | inconclusive: 108%
14 | CCOC(=O)c1c(NC(=O)N/N=C/c2ccccc2OCC)sc(C(C)=O)c1C | inconclusive: 121%
15 | COc1ccc2[nH]c(=O)c(CN(Cc3ccc4c(c3)OCO4)C(C)=O)cc2c1 | inconclusive: 91%
16 | CCOC(=O)C1CCCN(C(=O)CCn2nc(-c3ccccc3)ccc2=O)C1 (configuration not stated) | inconclusive: 102%
17 | Cc1ccccc1CNc1nnnn1C | inactive: 99%
18 | O=C(c1ccccc1NS(=O)(=O)c1ccc(F)cc1)N1CCc2ccccc21 | inconclusive: 97%
19 | CC(=O)c1c(C)nc(-c2ccc(Cl)cc2Cl)n1O | inconclusive: 97%
20 | CCN=C1S/C(=C\c2ccc(OC)c(OCC)c2)C(=O)N1CC | inconclusive: 202%
21 | CC(=O)c1cccc(NC(=O)N2CCCC2C(=O)NCCC(C)C)c1 (configuration not stated) | inconclusive: 107%
22 | Cc1ccc(S(=O)(=O)N(CC(O)CN2CCOCC2)c2cc(Cl)ccc2Cl)cc1 (configuration not stated) | inconclusive: 103%
23 | CC(C)OC(=O)CSc1nnc(-c2cnccn2)n1Cc1ccco1 | inconclusive: 91%

Row | Compound | GTP binding activity
24 | CC1CCCCN1C(=O)CSc1nc(N)cc(=O)[nH]1 (configuration not stated) | inconclusive: 104%
25 | Cc1cc(Cl)cc(Cl)c1OCC(=O)NCc1ccco1 | inconclusive: 93%
26 | COc1ccc(C2=NCCn3cccc32)c(OC)c1 | inconclusive: 102%
27 | Cc1ccc(-c2csc(NC(=O)c3cccc(S(=O)(=O)N4CCN(C)CC4)c3)n2)cc1 | inconclusive: 91%
28 | Cc1cc(C)c2oc(C(=O)Nc3ccc(S(=O)(=O)N4CCCC(C)C4)cc3)cc(=O)c2c1 (configuration not stated) | inactive: 100%
29 | COc1cc(/C=N/NC(=O)[C@H](Cc2c[nH]c3ccccc23)NC(=O)OCC(C)C)cc([N+](=O)[O-])c1O | inconclusive: 83%
30 | COc1ccc(CCCc2nnc(SCC(=O)N/N=C\c3ccc(O)c(OC)c3)o2)cc1C | inconclusive: 88%
31 | Cc1cc(C)c(/C([O-])=C(/C(=S)Nc2ccc(SC(F)F)cc2)[n+]2ccccc2)cc1C | inconclusive: 86%
32 | COc1ccccc1NC(=O)C(=O)N(c1cccnc1)C(C(=O)NC(C)(C)C)c1ccccc1F (configuration not stated) | inconclusive: 94%
33 | CSc1ccccc1NC(=O)CN1CC(C)OC(C)C1 (configuration not stated) | inactive: 101%
34 | COc1ccc(-c2nn3c(-c4ccccn4)nnc3s2)cc1OC | active: 79%
35 | COCCn1cnc2c1c(=O)n(CC(=O)OCC#N)c(=O)n2Cc1ccccc1 | inactive: 94%
36 | CCCC(=O)Oc1ccc(N(C(=O)CCC)S(=O)(=O)c2cccs2)cc1 | inconclusive: 95%
37 | C[C@H](NC(=O)OC(C)(C)C)C(=O)NCC1CCC(C(=O)O)CC1 (some centres not stated) | inconclusive: 105%
38 | CNC(=O)c1cn(-c2ccccc2)c(=O)c2ccccc12 | inconclusive: 104%
39 | CCOc1cc(/C=N/NC(=O)CSc2cccc3cccnc23)ccc1O | inconclusive: 72%
40 | CN(c1ccccc1)S(=O)(=O)c1cccc(C(=O)Nc2nccs2)c1 | inconclusive: 94%
41 | Cn1c(CNc2nc(-c3ccccc3)cs2)nnc1SCC(=O)c1ccccc1 | inconclusive: 94%
42 | CN=CC1=C(O)C(C(=O)OC)C(C)(C)CC1=O (configuration not stated) | inactive: 96%
43 | COc1ccc(C2=NN(C(=O)c3cccs3)C(c3ccccc3OC)C2)cc1OC (configuration not stated) | inconclusive: 85%
44 | CCOc1cc(C=O)cc(Br)c1OCC(N)=O | inactive: 97%
45 | CN(C(=O)C1CCCO1)c1nnc(-c2ccncc2)s1 (configuration not stated) | inactive: 97%
46 | O=C(/C=C/c1ccc(F)cc1)NC(Cc1c[nH]c2ccccc12)C(=O)O (configuration not stated) | inconclusive: 81%

Row | Compound | GTP binding activity
47 | CCOC(=O)C1=C(N)Oc2cc(O)ccc2C1c1ccc([N+](=O)[O-])cc1 (configuration not stated) | inconclusive: 93%
48 | Cc1nn(-c2ccccc2)c2sc(C(=O)O)cc12 | inconclusive: 79%
49 | CC(=O)NCCn1c(SCC(=O)NCCc2ccc(S(N)(=O)=O)cc2)nc2ccccc2c1=O | inconclusive: 93%
50 | COc1cc2[nH]c(=S)nc(NCCCOC(C)C)c2cc1OC | inconclusive: 67%
51 | CC(C)Cc1nnc(NC(=O)CSc2nc(O)c(Cc3ccccc3)c(=O)[nH]2)s1 | inconclusive: 91%
52 | Cc1ccc(N=Nc2c(N)[nH]n3c(=O)c4c(nc23)CCCC4)cc1 | inactive: 82%
53 | CCOC(=O)c1[nH]ncc1CN1CCCC(C(=O)c2ccc(C(C)(C)C)cc2)C1 (configuration not stated) | inactive: 99%
54 | O=C(c1cc2cc([N+](=O)[O-])ccc2oc1=O)N1CCOCC1 | inconclusive: 102%
55 | N#Cc1c(N)nc2c(c1-c1ccccc1)CCC2 | inactive: 97%
56 | CCCC(=O)Nc1sc2c(c1C(=O)Nc1ccccn1)CCCC2 | inactive: 98%
57 | Cn1ncc(N=Cc2ccc([N+](=O)[O-])cc2)c1C(=O)Nc1ccccc1 | inactive: 95%
58 | CSc1cccc(NC(=O)CSc2ccccc2)c1 | inconclusive: 90%
59 | COc1ccccc1-n1ccnc1SCC(=O)NCc1ccco1 | inactive: 98%
60 | Cn1c(=O)n(Cc2ccccc2)c(=O)c2c1nc1n2CCN1Cc1ccco1 | inconclusive: 81%
61 | O=C(NC1=NCCS1)c1cc(-c2cccnc2)nc2ccccc12 | inconclusive: 91%
62 | CCN(c1ccccc1)S(=O)(=O)c1cc(C(=O)OC(C)C(=O)Nc2ccc3c(c2)OCCO3)ccc1C (configuration not stated) | inconclusive: 87%
63 | O=C(N/N=C/c1c(O)n(Cc2ccccc2)c(=O)c2ccccc12)c1cccnc1 | active: 71%
64 | COc1cc(/C=N/NC(=O)CSc2cc(C)c(Br)cc2C)ccc1O | inconclusive: 94%
65 | CCN(CC)CCNC(=O)CCn1c(=S)[nH]c2cc3c(cc2c1=O)OCO3 | inconclusive: 101%
66 | Brc1ccccc1-n1nnc(-c2ccnc3ccccc23)n1 | inconclusive: 107%
67 | CCOc1ccc(-n2c(C)nc(O)c2N=Nc2ccccc2)cc1 | inactive: 95%
68 | O=C(CCC(=O)N1CCN(S(=O)(=O)c2ccccc2)CC1)NC1CCCc2ccccc21 (configuration not stated) | inconclusive: 106%
69 | COc1ccc(/C=N/NC(=O)Nc2cccc3nsnc23)cc1OC | inconclusive: 68%

Row | Compound | GTP binding activity
70 | CNC(=O)C(C)NS(=O)(=O)c1ccc(F)cc1 (configuration not stated) | active: 36%
71 | CCN(CC)CCn1c2ccccc2c2cnc(N)c(C#N)c21 | inactive: 93%
72 | CCCNC(=O)CCn1c(-c2ccc(C)cc2)cc(C(=O)OCC)c1C | inconclusive: 101%
73 | Cc1nc(S(=O)(=O)N(C)Cc2ccccc2)c(C#N)c(C)c1Cl | inconclusive: 103%
74 | Cc1cccc2cc(CN(CC3CCCO3)C(=O)c3ccco3)c3nnnn3c12 (configuration not stated) | inconclusive: 96%
75 | CSC1=NC(=O)/C(=C\c2cccc3ccccc23)S1 | inconclusive: 92%
76 | COc1ccc(N2CC(C(=O)OC(C)C(=O)c3ccccc3)CC2=O)cc1 (configuration not stated) | inactive: 96%
77 | CC(/C=C1\SC(=S)N(NC(=O)c2ccccc2C)C1=O)=C\c1ccccc1 | inconclusive: 83%
78 | N#CC(C#N)=C(Nc1ccc(F)cc1)SCc1cccc(Br)c1 | inactive: 109%
79 | O=C(NCc1ccccc1)c1noc2c1CCCCC2 | inconclusive: 108%
80 | Cc1ccc(N2CCN(S(=O)(=O)N3CCOCC3)CC2)cc1C | inactive: 100%
81 | CCOc1cccc(/C(O)=C2/C(=O)C(=O)N(CCOC)C2c2ccncc2)c1 (configuration not stated) | inconclusive: 565%
82 | COc1ccc(OC)c(NC(=O)CCc2c[nH]c3ccccc23)c1 | inconclusive: 95%
83 | CCC(CC)C1C(C#N)=C(N)Oc2n[nH]c(C)c21 (configuration not stated) | inconclusive: 101%
84 | COc1ccc(/C=N/NC(=O)c2cccnc2)cc1Cn1nc([N+](=O)[O-])c(Br)c1C | inconclusive: 63%
85 | Oc1ccc(/C=N/Nc2nc(-c3ccc(Cl)cc3)cc(C(F)(F)F)n2)cc1 | inactive: 98%
86 | COc1ccc(CN2CCNC(=O)C2CC(=O)N(C)Cc2ccon2)c(OC)c1 (configuration not stated) | inactive: 98%
87 | Cc1ccn2c(=O)nc(SCc3cccc(C(F)(F)F)c3)nc2c1 | inactive: 94%
88 | Cc1cccc(-n2c(SCc3ccc(C#N)cc3)nnc2-c2c[nH]c3ccccc23)c1 | inconclusive: 95%
89 | O=C(O)c1cc(N2N=C(C(F)(F)F)/C(=C/C=C/c3ccco3)C2=O)ccc1Cl | inactive: 83%
90 | COc1ccccc1NC(=O)Cn1cc(C#N)c2ccccc21 | inconclusive: 104%
91 | O=C(O)c1cc(N2C(=O)C3C4C=CC(C4)C3C2=O)ccc1NCc1cccnc1 (configuration not stated) | inconclusive: 103%
92 | Cc1cc(C)nc(/N=C(\N)Nc2ccc(S(=O)(=O)Nc3nccc(C)n3)cc2)n1 | inactive: 92%

Source: PubChem BioAssay AID760 (NMMLSC, 2007)
